Patent US20160237160A1, “ANTI-TWEAKR ANTIBODIES AND USES THEREOF” (BAYER PHARMA AKTIENGESELLSCHAFT, priority 2013, published 2016)
Entries after “also recorded” stand apart in the source; their conditions may differ. Marks after values point to notes of the source that are not given here.

Key:
[1] = test system: Lewis Lung cells; assay: FACS binding to cell surface; details: murine CA cell line, 10 μg/ml
Description: To determine the binding characteristics of the anti-TWEAKR antibodies on mouse and human cancer cell lines, binding was tested by flow cytometry to a panel of cell lines. Adherent cells were washed twice with PBS without Ca and Mg (Biochrom #L1825: aqueous solution containing 8000 mg/l NaCl, 200 mg/l KCl, 1150 mg/l Na2HPO4, and 200 mg/l KH2PO4) and detached by enzyme-free PBS based cell dissociation buffer (Invitrogen). Cells were suspended at approximately 10^5 cells/well in FACS buffer (PBS without Ca/Mg, containing 3% FCS, Biochrom). Cells were centrifuged (250 g, 5 min, 4° C.) and supernatant discarded. Cells were resuspended in dilutions of the antibodies of interest (10 μg/ml in 80 μl if not indicated otherwise) in FACS buffer, and incubated on ice for 1 h. […] After incubation for 1 h on ice cells were again washed with cold FACS buffer, resuspended in 1000 FACS buffer and analyzed by flow cytometry using a FACS-Array (BD Biosciences). Results are calculated as Geo Mean of fluorescence detected by the antibody of interest subtracted by background fluorescence as measured by detection with the secondary antibody alone. Values are scored according to the following system: Geo Mean−Geo Mean of secondary antibody alone >10: +, >100: ++, >1000: +++, 10000: ++++, close to category border in ( ).

[2] = test system: Bx-PC3 xenograft (pancreatic cancer); assay: Xenograft anti-tumor efficacy; type: in vivo, mice; details: based on measurement of tumor area (*)
Description: Tumor cell lines were cultivated as described in the parts above and 100 μl containing cell line specific numbers of tumor cells inoculated subcutaneously (s.c.) into female athymic nude mice (NMRI nu/nu, 6-8 weeks, 20-25 g, Taconic). Mice were housed under standardized pathogen free conditions and treated according to the animal welfare guidelines.
After tumor growth to a size of approximately 40 mm^2 mice were randomized into control and treatment groups with a respective group size of n=8-10. Mice were treated with various doses of anti-TWEAKR antibodies diluted in PBS by intravenous injection (i.v.) into the tail vein with a twice per week schedule (q4dx3: applications twice per week, three applications in total; q4dx8: applications twice per week, eight applications in total). […]
Tumor growth was monitored 2-3 times per week by caliper measurement (length×width in mm) as well as body weight (in g). […]

[3] = test system: tumor free mice; assay: Cytokines in serum/plasma of tumor free mice (Luminex); type: in vivo; details: 10 mg/kg
From the text: To investigate, whether the observed cytokine secretion is also of relevance in xenograft tumors in mice, human and murine cytokines in serum/plasma from tumor bearing (A375, WiDr) as well as tumor free mice were investigated. 5×10^6 A375 cells in Matrigel/PBS (1:1) or 5×10^6 WiDr cells in Matrigel/Medium (1:1) were subcutaneously inoculated in immunodeficient female NMRI nude mice. Parallel to A375-bearing mice, non-tumor mice were investigated. Treatment started 7d after inoculation with established tumors of about 40 mm^2. […]
Cytokines were quantified using Luminex® bead immunoassays. Human cytokines were determined with Human Cytokine Magnetic 25-plex panel (Invitrogen®, Cat-No. LHC0009M), comprising IL-1β, IL-1RA, IL-2, IL-2R, IL-4, IL-5, IL-6, IL-7, IL-8, IL-10, IL-12 (p40), IL-13, IL-15, IL-17, TNF-α, IFN-α, IFN-γ, GM-CSF, MIP-1α, MIP-1β, IP-10, MIG, Eotaxin, RANTES, and MCP-1). Murine cytokines were determined with Mouse Cytokine Magnetic 20-plex panel (Invitrogen®, Cat-No. LHC0006M) comprising FGF basic, GM-CSF, IFN-γ, IL-1α, IL-1β, IL-2, IL-4, IL-5, IL-6, IL-10, IL-13, IL-12 (p40/p70), IL-17, IP-10, KC, MCP-1, MIG, MIP-1α, TNF-α and VEGF). The assays were conducted according to the manufacturer's instructions and measured by the Luminex reader Bio-Plex 200 (Bio-Rad GmbH). […]

[4] = test system: HT-29 cells; assay: Internalization of labeled antibodies (InCell Analyzer); type: cell-based, human
Description: (§1) The antibodies were conjugated in the presence of a twofold molar excess of CypHer 5E mono NHS ester (batch 357392, GE Healthcare) at pH 8.3. […] These labeled antibodies were used in the following internalization assays. Prior to treatment cells (2×10^4/well) were seeded in 100 μl medium in a 96-MTP (fat, black, clear bottom No 4308776, Fa. Applied Biosystems). […] The identical treatment was carried out with the isotope control antibody (negative control). The incubation time was chosen to be 0, 0.5 h, 1 h, 2 h, 3 h, 6 h and 24 h. The fluorescence measurement was performed with the InCellAnalyzer 1000 (Fa. GE Healthcare). Granule counts per cell and total fluorescence intensity were measured in a kinetic fashion.

[5] = test system: 786-O cells; assay: as above; type: cell-based, human
Description: as §1

B1: TPP-1538: anti-TWEAKR human IgG1; heavy chain SEQ ID NO: 62, light chain SEQ ID NO: 61 (antibody, listed as Homo Sapiens)
heavy: EVQLLESGGGLVQPGGSLRLSCAASGFTFSPYPMMWVRQAPGKGLEWVSYISPSGGKTHYADSVKGRFTISRDNSKNTLYLQMNSLRAEDTAVYYCARGGDTYFDYFDYWGQGTLVTVSS[human IgG1 constant region not shown]
light: AQDIQMTQSPATLSASVGDRVTITCRASQSISSYLNWYQQKPGKAPKLLIYAASSLQSGVPSRFSGSGSGTDFTLTISSLQPEDFATYYCQQSYSSPGITFGPGTKVEIKRTVAAPSVFIFPPSDEQLKSGTASVVCLLNNFYPREAKVQWKVDNALQSGNSQESVTEQDSKDSTYSLSSTLTLSKADYEKHKLYACEVTHQGLSSPVTKSFNRGEC
[1]
  Binding by scoring of FACS analysis: + (>10: +)
[2]
  Final T/C: 0.54*
[3]
  human cytokines in plasma of treated tumor free mice: no increased secretion of human cytokines was detected
[4]
  internalization: highly specific and significant internalization
[5]
  internalization (granule counts per cell): highly specific and significant internalization; also recorded: Rapid internalization
